The whole screen tested about 46,000 compounds, of which about 60 (0.1%) were called active. About 3% were inconclusive and are not listed. Calls come from the whole dose curve; as a rule, active = well fitted inhibition curve with a large enough effect; inconclusive = small, poorly fitted or top-dose-only effect; inactive = no such curve, though single readings can be large or run the other way. Some of the results follow.

The source of these data is PubChem BioAssay AID1963576 (National Center for Advancing Translational Sciences (NCATS), 2024).

The nature of the test: Primary qHTS assay for Inhibitors of ovarian cancer metastasis using an organotypic tumor microenvironment (TME) model.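 For activity change, negative = inhibition: plate controls were DMSO wells for no effect and tomatine positive control wells for full effect.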 Note: nearly all actives have a fitted effect of over 65% in size. The note with it: SKOV3ip1-GFP adhesion/invasion on 3D omental model, fluorescence; series mostly up to 45.8 µM; activity change, negative = inhibition: at the top concentration. A digest of the protocol: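 Adhesion/invasion was scored as fixed GFP-labeled SKOV3ip1 cell counts (488/509 nm), normalized to DMSO and tomatine controls. Cancer cells in serum-free medium, with four compound doses (0.36-46 umol/L), sat 2 hr at RT then 16 hr at 37 C on a 48 hr fibroblast/mesothelial/ECM culture.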
Regarding `CCn1nc(C)c(CCN(C)C(=O)Nc2ccc(C)c(Cl)c2)c1C`, the “activity change, negative = inhibition” value was inactive: 2.35%.
On to `Cc1cccc(Nc2nn3c(=O)c4cc5c(cc4nc3s2)OCO5)c1`, for which the “activity change, negative = inhibition” value was inactive: -0.22%.
On to `COc1cc(NC(=O)c2nn(C)c3c2CS(=O)(=O)c2ccccc2-3)cc(OC)c1`, for which the result was inactive.
Consider `O=C(Nc1ccc2nc3n(c(=O)c2c1)CCCCC3)C(=O)Nc1ccccc1F`, for which the “activity change, negative = inhibition” value was inactive: -1.44%.
With `COCCCNC(=O)c1c(-c2ccccc2)c(-c2ccccc2)nn(C)c1=O`, the molecule was classed as inactive.
As for `CCc1ccc(Cn2c(CNS(=O)(=O)c3ccc([N+](=O)[O-])cc3)nc3cccnc32)cc1`, the “activity change, negative = inhibition” value was inactive: -5.85%.
Take `CCOC(=O)Cn1c(=O)n(CC2CCCO2)c2nc(-c3ccc(OCC)cc3)nc(C(N)=O)c21` (stereo unspecified): the “activity change, negative = inhibition” value was inactive: 1.16%.
On the same count and under the same terms, the value for `CCN(CC)CCNC(=O)CN1C(=O)COc2ccc(S(=O)(=O)N3CCOCC3)cc21` was inactive: 9.85%.
With `COc1ccc(NC(=O)c2sc3nc4c(cc3c2N)CCCCCC4)c(OC)c1`, the call was inactive.
The same measure, in the same setting: the value for `COc1cc(N2C(=O)CSC23C(=O)N(Cc2cccc(F)c2)c2ccccc23)cc(OC)c1OC` (stereo unspecified) was “inactive”.
Consider `Cc1cc(Nc2cccc(Cl)c2)nc2ccc(NC(=O)Cc3ccc(Cl)cc3)cc12`, for which the “activity change, negative = inhibition” value is inactive: -6.36%.
For `Cc1ccc(-n2ncc(C(=O)NCc3ccccc3)c2C2CCN(C(=O)OC(C)(C)C)CC2)cc1`, the call was inactive.
With `CCOc1ccccc1NC(=O)Cn1c(=O)n(Cc2ccccc2)c(=O)c2c1c1cc(C)ccc1n2C`, the “activity change, negative = inhibition” value was inactive: -15.9%.
For the molecule `COc1ccc(CCNC(=O)c2ccc3c(c2)CCN3S(=O)(=O)c2ccccc2)cc1OC`, the “activity change, negative = inhibition” value was inactive: -4.03%.
As to `CCCCOC(=O)c1ccc(OC(=O)c2sc3ncn(Cc4ccccc4Cl)c(=O)c3c2C)cc1`, the “activity change, negative = inhibition” value was inactive: -0.457%.
The same measure, in the same setting: the value for `COc1ccccc1OCc1nnc(-c2ccccc2)o1` was inactive: -9.89%; that for `COc1cccc(CNC(=O)Cc2csc3nc(-c4ccccc4)cn23)c1` was inactive: -0.573%.
For `CCOc1ccc(CNCCCSc2nnnn2C)cc1OC`, the “activity change, negative = inhibition” value is inactive: -7.38%.
The same measure, in the same setting: the value for `O=C(CSc1nc(=O)n(Cc2ccco2)c2c1CCC2)Nc1cccc(F)c1` was inactive: 0.11%.
With `Cc1ccc(Cl)cc1Nc1sc(C(=O)c2ccc(F)cc2)c(N)c1S(C)(=O)=O`, the “activity change, negative = inhibition” value is inactive: -7.81%.
On to `O=C(Nc1ccc(Cl)c(-c2nc3ccccc3o2)c1)c1ccc(-c2cccc([N+](=O)[O-])c2)o1`, for which the outcome was inactive.
`N#Cc1c(O)c2c(-c3ccc(-c4ccccc4O)cc3)csc2[nH]c1=O`: the “activity change, negative = inhibition” value was inactive: -12.1%.
On the same count and under the same terms, the value for `COc1ccccc1N1CCN(C(c2ccc(Cl)cc2)c2nnc(-c3cccc(F)c3)o2)CC1` (stereo unspecified) was inactive: 4.13%.
For the molecule `CCOc1ccc(NC(=O)Cn2cc(C(=O)c3ccc(OC)cc3)c(=O)c3cc4c(cc32)OCO4)cc1`, the outcome was inactive.
In the case of `COc1ccc(CC(=O)Nc2sc3c(c2C(=O)Nc2cccc(C)c2)CCCCC3)cc1`, the “activity change, negative = inhibition” value is inactive: -0.957%.
Consider `COc1ccccc1CNC(=O)c1cnc(N(C)C)nc1`, for which the call was inactive.
